Results published in PubChem BioAssay AID894 (National Center for Advancing Translational Sciences (NCATS), 2007).
Out of some 150,000 compounds screened, about 6,500 (4.3%) were called active. Inconclusive means that the source gave no clear call. Such entries were picked first, then a sample of the others. The call rests on the fitted dose curve; in most records, active means well fitted inhibition curve with a large enough effect (not every such curve was filed as active); inconclusive means small, poorly fitted or top-dose-only effect, or another doubt; inactive means no such curve, though single readings can be large or run the other way. Potencies of inconclusive entries are left out as doubtful fits.

target: 15-hydroxyprostaglandin dehydrogenase [NAD(+)] (Homo sapiens) (UniProt P15428); assay: qHTS Assay for Inhibitors of HPGD (15-Hydroxyprostaglandin Dehydrogenase); details: purified HPGD, NADH fluorescence kinetic, PGE2 substrate; activity change, negative = inhibition: stronger effect = lower value
How it was run: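 NADH formation kinetics: reaction with 30 uM PGE2 and 1 mM NAD+ (final), 20 nM enzyme, Tris-HCl pH 8 with Tween 20, after 15 min compound preincubation at room temperature. Fluorescence change, last versus first of five reads.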
On the % scale 0 is the no-effect control and ±100 the full control effect; potency means the concentration at half of the fitted maximal effect; tags describe the fitted curve by direction and shape.

Sequence of UniProt P15428 (P15428 whole entry, looked up): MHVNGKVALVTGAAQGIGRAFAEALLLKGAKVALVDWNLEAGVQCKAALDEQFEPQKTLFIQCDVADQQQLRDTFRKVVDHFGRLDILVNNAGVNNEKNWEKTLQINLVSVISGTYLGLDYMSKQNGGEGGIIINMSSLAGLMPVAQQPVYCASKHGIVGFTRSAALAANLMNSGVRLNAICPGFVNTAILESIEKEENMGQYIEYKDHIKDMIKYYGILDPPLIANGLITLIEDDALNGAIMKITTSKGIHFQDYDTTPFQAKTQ

Structure (SMILES) | Potency | activity change, negative = inhibition
Cc1ccc(-n2nc3c(c2NC(=O)c2ccc(Br)o2)CSC3)c(C)c1 | inconclusive [inhibitor, single point] | –
CC(=O)Nc1ccc(S(=O)(=O)NCCSCc2ccc(Cl)cc2Cl)cc1 | – | inactive: -11.3%
Brc1ccc(-c2nc(N/N=C/c3cccnc3)c3ccccc3n2)cc1 | inconclusive [inhibitor, partial curve] | –
O=C(NC(=S)Nc1ccccc1Cl)c1csnn1 | inconclusive [inhibitor, partial curve] | –
CCCCn1c(SCc2nnc(-c3ccccc3)o2)nc2c1c(=O)n(C)c(=O)n2C | inconclusive [inhibitor, partial curve] | –
Cc1ccc(Nc2nnns2)cc1 | active: 22.4 µM | –
Cc1csc(SCC(=O)NCCc2ccc(Cl)cc2Cl)n1 | active: 28.2 µM | –
Cn1c(SCC(=O)Nc2ccc3nc(SCC(=O)N4CCCC4)sc3c2)nnc1-c1ccc(N)cc1 | active: 8.91 µM | –
CC(C)CCn1cnc2c(c1=O)c1nc3ccccc3nc1n2Cc1ccc2c(c1)OCO2 | inconclusive [inhibitor, partial curve] | –
COCc1cc(C)nc(OCC(=O)N/N=C/c2ccco2)c1C#N | inconclusive [inhibitor, partial curve] | –
Cc1cc(CNC(=O)[C@H](C)[C@H]2C[C@]2(C)[C@H](NC(=O)OCc2ccccc2)c2ccccc2)nn1C | – | inactive: -8.83%
COc1ccc(OC)c(-c2[nH]nc3c2C(c2ccco2)C(C#N)=C(N)O3)c1 (stereo not given) | inconclusive [inhibitor, partial curve] | –
CC(=O)Nc1ccc(N/C=C/C(=O)c2ccco2)cc1 | active: 25.1 µM | –
O=C(Nc1ccc2oc(-c3ccc(F)cc3)nc2c1)c1ccccc1F | inconclusive [inhibitor, single point] | –
CC(C)CCSc1nc2c(c(=O)[nH]c(=O)n2C)n1CCc1ccccc1 | – | inactive: -13.8%
O=[n+]1c2c(n([O-])c3cc(F)c(F)cc31)CCCC2 | active: 17.8 µM | –
Cc1ccc(OCC(=O)N/N=C\c2cn(Cc3ccccc3)c3ccccc23)cc1C | inconclusive [inhibitor, partial curve] | –
C=CCNC(=O)CCCOc1ccc(C)cc1 | active: 7.08 µM | –
O=C(Nc1cccc(S(=O)(=O)NCc2ccco2)c1)c1cc(-c2ccc(F)cc2)nc2ccccc12 | inconclusive [inhibitor, partial curve, poor fit] | –
CCCn1c(=O)[nH]c2nc(-c3ccc(S(=O)(=O)O)cc3)[nH]c2c1=O | inconclusive [inhibitor, partial curve] | –
O=C(NC(=S)Nc1ccc(N2CCOCC2)cc1)c1ccco1 | active: 22.4 µM | –
CS(=O)(=O)N1CCN(C(=O)c2cc(-c3cccs3)nc3ccccc23)CC1 | inconclusive [inhibitor, partial curve] | –
CC(=O)Nc1ccc(N=Nc2ccc(O)cc2)cc1 | inconclusive [inhibitor, partial curve, poor fit] | –

Structure (SMILES) | Potency | activity change, negative = inhibition
Cc1nc2c(C(=O)N3CCOCC3)cnn2c(C)c1Cc1cccc(Cl)c1 | inconclusive [inhibitor, single point] | –
CCOC(=O)c1[nH]c(C)c(C)c1C | – | inactive: -8.56%
CC(C)(C)SCCNC(=O)c1ccccc1 | – | inactive: -17.1%
C=CCNC(=O)c1onc(CSc2ccc(C(C)C)cc2)c1C(=O)O | active: 14.1 µM | –
c1ccc(-n2ncc3c(NCc4ccco4)ncnc32)cc1 | inconclusive [inhibitor, partial curve] | –
O=C(c1cnc2sccn2c1=O)N1CCc2ccccc2C1 | inconclusive [inhibitor, partial curve] | –
CC(C)OC(=O)c1cccc(C(=O)Oc2ccccc2)n1 | – | inactive: -18.2%
O=C(CCc1nc(-c2ccccc2)no1)NCC1CCCO1 (stereo not given) | active: 25.1 µM | –
CCOC(=O)c1c(NC(=S)Nc2ccccc2)sc2c1CCN(CC)C2 | inconclusive [inhibitor, partial curve] | –
CC(=O)[C@@H]1[C@@H]2C(=O)N(C3CCCCC3)C(=O)[C@@H]2C2c3ccccc3C=CN21 (stereo not given in full) | inconclusive [inhibitor, partial curve, poor fit] | –
Oc1ccccc1-c1nnc(SCCN2CCOCC2)n1Cc1ccccc1 | inconclusive [inhibitor, full curve, poor fit] | –
CCc1nnc(NC(=O)CSc2nc3cccnc3n2Cc2ccccc2)s1 | – | inactive: -16.4%
CCC(=O)NC(Nc1sc2c(c1C(=O)OC)CCN(C)C2)(C(F)(F)F)C(F)(F)F | – | inactive: -2.11%
COc1ccc(-n2c(=S)[nH]c3cc(C(=O)Nc4ccccc4OC)ccc3c2=O)cc1 | – | inactive: -12.8%
Cc1ccc(-c2cnc(NC(=O)c3cccc(Br)c3)s2)c(C)c1 | inconclusive [inhibitor, single point] | –
Cc1ccc(NC(=O)CSC2=C(C#N)C(c3ccco3)C3=C(CCCC3=O)N2)cc1 (stereo not given) | inconclusive [inhibitor, partial curve] | –
Cc1ccc(-n2c(C)cc(C3=NNC(=NC4CC4)SC3)c2C)cc1C | inconclusive [inhibitor, partial curve] | –
Cc1ccc2nc(NC(=O)COC(=O)CSc3nc(C)cc(C)n3)sc2c1 | inconclusive [inhibitor, partial curve] | –
O=C(c1cc(-c2ccccc2O)on1)N1CCc2ccccc2C1 | inconclusive [inhibitor, full curve, poor fit] | –
COc1cc(CNc2ccc3[nH]c(=O)[nH]c3c2)cc(Cl)c1OCC(=O)NC(C)(C)C | inconclusive [inhibitor, partial curve] | –
Cc1c(Cl)cnc(NC(=O)COC(=O)C(NC(=O)c2ccco2)C(C)C)c1Cl (stereo not given) | – | inactive: -8.17%
Cc1ccc(C)n1-c1ccc(-c2nnc3n2CCCCC3)s1 | active: 3.16 µM | –
